Several values for one entry are separate records, joined by “and”; a condition that tells them apart may be missing. Equal values may be shown once. Hit rate of the full screen: of about 420,000 compounds, about 50,000 (12%) were called active. This list was built around the results that the source calls inconclusive (neither active nor inactive); the mix of calls is not that of the screen. Calls come from the whole dose curve; as a rule, active = well fitted inhibition curve with a large enough effect; inconclusive = small, poorly fitted or top-dose-only effect; inactive = flat fitted curve, though single readings scatter. A potency beside an inconclusive call is a rough fit, not a confirmed value.
Test: qHTS for Inhibitors of human tyrosyl-DNA phosphodiesterase 1 (TDP1): qHTS in cells in presence of CPT; note: nearly all actives have a fitted effect of over 55% in size
Conditions: chicken DT40 Tdp1-/-;hTDP1 cells + 20 nM CPT, ATP luminescence, 48 h; activity change, negative = growth inhibition: at 46.2 µM (top of the series) unless noted
Outline: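 Chicken DT40 Tdp1-/- cells stably complemented with human TDP1 were seeded at 400 cells/well in medium containing 20 nM camptothecin, exposed to pin-transferred compounds, and grown at 37 °C for at least 48 hr. Viability was read as ATP luminescence.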
% is set by controls: 0 for no effect and ±100 for the full control effect; potency is the fitted concentration of half-maximal effect; tags give direction and shape of the fitted curve.

Question: With `O=C(NC(Cc1ccccc1)C(=O)N1CCN(S(=O)(=O)c2ccccc2F)CC1)c1ccccc1` (stereo unspecified) as the compound, how does the Potency read?
Answer: inconclusive: 16.4 µM [inhibitor, single point]

Question: With `Cc1ccc(O)c(C(=O)c2cnc3c(c2)CN(C)C(=O)N3)c1` as the compound, how does the Potency read?
Answer: inconclusive: 35.5 µM [inhibitor, single point]

Question: With `O=C(Nc1cccc(C(F)(F)F)c1)Nc1cccs1` as the compound, how does the Potency read?
Answer: inconclusive: 18.4 µM [inhibitor, single point]

Question: Which Potency does the source give for `O=C(CCc1ccccc1)NNC(=O)c1cc(Cl)ccc1O` here?
Answer: inconclusive: 25.9 µM [inhibitor, single point]

Question: For `O=C(CSc1nnc2scc(-c3ccccc3)n12)Nc1ccc(Cl)cc1`, which “activity change, negative = growth inhibition” value is on record?
Answer: inactive: -26.2%

Question: Which “activity change, negative = growth inhibition” value does the source give for `NS(=O)(=O)c1ccc(CCNC(=O)Cc2cccs2)cc1` here?
Answer: inactive: -11.1%

Question: For `C/C(=N\Nc1nc(Cl)c(Cl)cc1Cl)c1ccc(S(=O)(=O)NCc2ccco2)cc1`, which Potency is on record?
Answer: inconclusive: 29.1 µM [inhibitor, single point]

Question: Which Potency does the source give for `CCOC(=O)c1c(C)[nH]c(C)c1S(=O)(=O)N(C)CC(=O)NCc1cccc(Br)c1` here?
Answer: inconclusive: 29.1 µM [inhibitor, single point]

Question: With `C[C@]12CCC(=O)C=C1CC[C@@H]1[C@@H]2[C@@H](O)C[C@]2(C=O)[C@@H](C(=O)CO)CC[C@@H]12` as the compound, how does the “activity change, negative = growth inhibition” value read?
Answer: inactive: -2.97%

Question: Which Potency does the source give for `CC1CCN(c2ccc(-c3nc(-c4ccccc4)no3)cc2[N+](=O)[O-])CC1` here?
Answer: inconclusive: 25.9 µM [inhibitor, single point]

Question: Which Potency does the source give for `CCc1cccc(C)c1NC(=O)CCCN1C(=O)C(c2ccccc2)Oc2cccnc21` (stereo unspecified) here?
Answer: inconclusive: 9.2 µM [inhibitor, partial curve, poor fit]

Question: For `COc1ccc(CN2CCCC(CO)(Cc3ccc(F)cc3)C2)c(OC)c1OC` (stereo unspecified), which Potency is on record?
Answer: active: 14.6 µM

Question: For `CCn1nc(C)c(CNC(=O)c2cc(COc3ccc(C)nc3)on2)c1C`, which Potency is on record?
Answer: inconclusive: 5.8 µM [inhibitor, partial curve]

Question: With `O=C(CCc1c[nH]c2ccccc12)N1CCN(S(=O)(=O)c2ccccc2)CC1` as the compound, how does the Potency read?
Answer: inconclusive: 0.58 µM [inhibitor, full curve, poor fit]

Question: Which Potency does the source give for `COc1ccc(NC(=O)C2CCN(C(=O)c3ccc(OC)cc3)CC2)cc1` here?
Answer: active: 14.6 µM

Question: Which “activity change, negative = growth inhibition” value does the source give for `CC(=NCc1cccc(Cl)c1)c1nc(-c2ccco2)oc1O` here?
Answer: inactive: -29.8%

Question: Which Potency does the source give for `Cc1nn(-c2nc3ccccc3[nH]2)c(N)c1-c1ccc(Cl)cc1` here?
Answer: inconclusive: 29.1 µM [inhibitor, single point]

Question: For `COc1cc(CN2CCC(C(=O)NC(c3ccc(-c4ccccc4)cc3)c3cnccn3)CC2)cc(OC)c1` (stereo unspecified), which Potency is on record?
Answer: active: 9.2 µM

Question: Which “activity change, negative = growth inhibition” value does the source give for `Cc1c(NC(=O)c2cc(-n3cnnc3)ccc2Cl)cccc1-c1nc2ccccc2s1` here?
Answer: inactive: -25.2%

Question: With `Cc1ccc(Cn2cnc3sc4c(c3c2=O)CCC4)c(C)c1` as the compound, how does the Potency read?
Answer: inconclusive: 16.4 µM [inhibitor, single point]

Question: With `Cn1c(=O)c2c([nH]c(=S)n2Cc2ccc(Cl)cc2)n(C)c1=O` as the compound, how does the “activity change, negative = growth inhibition” value read?
Answer: inactive: -27.2%

Question: With `CN(C)c1ccc(NC(=S)Nc2ccc3c(c2)c(=O)n(C)n3-c2ccc(C(C)(C)C)cc2)cc1` as the compound, how does the Potency read?
Answer: active: 20.6 µM

Question: With `COC(=O)N1C(=O)[C@](c2ccc(Cl)cc2)(C(C)C)N1C(=O)OC` as the compound, how does the Potency read?
Answer: active: 13 µM

Question: Which Potency does the source give for `COc1cccc(-c2nc3n(n2)CCc2ccccc2-3)c1` here?
Answer: inconclusive: 14.6 µM [inhibitor, partial curve]

Question: Which Potency does the source give for `Nc1ncnc2c1ncn2C1OC(COP(=O)(O)O)C(O)C1O` (stereo unspecified) here?
Answer: inconclusive: 29.1 µM [inhibitor, single point] and inconclusive: 20.6 µM [inhibitor, single point]

Question: With `Cc1ccc(C)c(COC(=O)c2cc(S(=O)(=O)N3CCCCC3)ccc2N2CCOCC2)c1` as the compound, how does the Potency read?
Answer: inconclusive: 29.1 µM [inhibitor, single point]

Question: With `COCCn1c(=S)[nH]c2ccccc21` as the compound, how does the “activity change, negative = growth inhibition” value read?
Answer: inactive: 2.47%

Question: With `CCOc1ccc2nc(N3CCC(C(=O)Nc4cc(C)ccc4C)CC3)sc2c1` as the compound, how does the Potency read?
Answer: inconclusive: 29.1 µM [inhibitor, single point]

Question: With `Cc1ccc(Cl)cc1NC(=O)CCn1c(=O)c2cccn2c2cccnc21` as the compound, how does the Potency read?
Answer: inconclusive: 29.1 µM [inhibitor, single point]

Question: With `CCN1CC=C2C(C1)C(c1ccc(Cl)s1)C(C#N)=C(N)C2(C#N)C#N` (stereo unspecified) as the compound, how does the Potency read?
Answer: active: 16.4 µM

Question: Which Potency does the source give for `CC(=O)N1N=C(c2ccccc2)CC1c1cn(Cc2ccccc2)c2ccccc12` (stereo unspecified) here?
Answer: active: 18.4 µM

Question: For `O=c1c(-c2ccc(Cl)cc2)cnc2n1CCS2`, which Potency is on record?
Answer: inconclusive: 16.4 µM [inhibitor, partial curve]

Question: Which “activity change, negative = growth inhibition” value does the source give for `Cc1cc(C(=O)OC(C)C(=O)NC2CCCCC2C)c(C)o1` (stereo unspecified) here?
Answer: inactive: 3.31%

Question: With `Oc1ccc(NCc2cccs2)cc1` as the compound, how does the Potency read?
Answer: inconclusive: 20.6 µM [inhibitor, single point]

Question: Which Potency does the source give for `O=C1OC(COCC#Cc2ccccc2)CN1c1ccccc1` (stereo unspecified) here?
Answer: inconclusive: 10.3 µM [inhibitor, partial curve]

Question: For `Cc1ccc(F)cc1C(=O)N1CCCC(c2cc(C(=O)Nc3ccccc3Cl)no2)C1` (stereo unspecified), which Potency is on record?
Answer: inconclusive: 29.1 µM [inhibitor, single point]

Question: For `COc1ccc(-c2sc(N)nc2-c2ccccc2)cc1`, which Potency is on record?
Answer: inconclusive: 35.5 µM [inhibitor, single point]

Question: Which “activity change, negative = growth inhibition” value does the source give for `CC1(C)C/C(=N\O)C(C(O)c2cccc([N+](=O)[O-])c2)C(C)(C)N1` (stereo unspecified) here?
Answer: inactive: 31.8%

Question: For `Cc1ccc2nc(N/N=C/c3ccccc3F)nc(-c3ccccc3)c2c1`, which Potency is on record?
Answer: inconclusive: 23.1 µM [inhibitor, single point]

Question: For `COc1ccc(NC(=O)CSc2nc(-c3cccs3)cc(C(F)(F)F)n2)c(OC)c1`, which Potency is on record?
Answer: active: 16.4 µM

Question: Which Potency does the source give for `O=C(NC1CCCCC1)c1ccc(CSc2nc3ccncc3n2Cc2ccccc2F)cc1` here?
Answer: inconclusive: 29.1 µM [inhibitor, single point]

Question: With `O=c1[nH]c(CN(CCc2ccccc2)S(=O)(=O)c2ccc(Cl)cc2)nc2ccccc12` as the compound, how does the “activity change, negative = growth inhibition” value read?
Answer: inactive: -4.02%

Question: With `Cc1ccc(C(=O)NCC(=O)Nc2ccncc2)cc1C` as the compound, how does the “activity change, negative = growth inhibition” value read?
Answer: inactive: -19.9%

Question: With `COc1ccc(CNCCC(c2ccc(F)cc2)c2ccc(OC)cc2)cc1` (stereo unspecified) as the compound, how does the Potency read?
Answer: active: 11.6 µM

Question: For `CCCCc1ccc(NC(=O)CSc2nc(=O)n(CCN(C)C)c3c2CCC3)cc1`, which Potency is on record?
Answer: inconclusive: 29.1 µM [inhibitor, single point]

Question: Which Potency does the source give for `O=C1CC2(CCN(C(=O)C3CC(=O)N(c4ccccc4)C3)CC2)Oc2ccccc21` (stereo unspecified) here?
Answer: inconclusive: 29.1 µM [inhibitor, single point]

Question: For `COc1ccc2c(-c3ccccc3)cc(SCC(N)=O)nc2c1`, which “activity change, negative = growth inhibition” value is on record?
Answer: inactive: -26.9%

Question: For `Cc1ccc(S(=O)(=O)N2CCN(C(=O)COC(=O)c3cncc(Br)c3)CC2)c(C)c1`, which “activity change, negative = growth inhibition” value is on record?
Answer: inactive: -2.42%

Question: With `CCOC(=O)c1ccc(NC(=S)NCCc2ccc(OC)c(OC)c2)cc1` as the compound, how does the activity change, negative = growth inhibition read?
Answer: inconclusive: -32.1% [inhibitor]

Question: With `Oc1c(C(c2ccccc2Cl)N2CCN(Cc3ccccc3)CC2)sc2nc(-c3ccco3)nn12` (stereo unspecified) as the compound, how does the Potency read?
Answer: inconclusive: 20.6 µM [inhibitor, single point]

Question: With `Cc1cc(C)n(CC(=O)N/N=C/c2cc([N+](=O)[O-])ccc2O)n1` as the compound, how does the Potency read?
Answer: active: 20.6 µM

Question: Which Potency does the source give for `CCN(CC)CCCNC(=O)CSc1nc(-c2ccc(OC)cc2)cc(C(F)(F)F)n1` here?
Answer: inconclusive: 23.1 µM [inhibitor, single point]

Question: Which Potency does the source give for `O=C(CSCc1cnn(-c2ccccc2)c1-n1cccc1)NCc1ccc(F)cc1` here?
Answer: inconclusive: 20.6 µM [inhibitor, single point]

Question: Which “activity change, negative = growth inhibition” value does the source give for `CCN(CC(=O)NCc1ccc(Cl)cc1)C(=O)CNS(=O)(=O)c1ccc(NC(C)=O)cc1` here?
Answer: inactive: -24.4%

Question: Which “activity change, negative = growth inhibition” value does the source give for `CC(C)Oc1ccc(Cc2c(O)nc(NCCCN(C)C)[nH]c2=O)cc1` here?
Answer: inactive: 4.93%

Question: With `CN(C)Cc1cccc([N+](=O)[O-])c1O` as the compound, how does the “activity change, negative = growth inhibition” value read?
Answer: inactive: 7.45%

Question: With `O=C(c1ccncc1)N1N=C(c2ccc(Br)cc2)CC1c1ccccc1O` (stereo unspecified) as the compound, how does the Potency read?
Answer: inconclusive: 29.1 µM [inhibitor, single point]

Question: With `S=C(Nc1ccccc1Cl)N(Cc1ccccc1)Cc1cccnc1` as the compound, how does the “activity change, negative = growth inhibition” value read?
Answer: inactive: 13.9%

Question: For `COc1cc(NC(=O)Cc2ccc(F)cc2)cc(OC)c1OC`, which Potency is on record?
Answer: inconclusive: 18.4 µM [inhibitor, partial curve]

Question: With `Cc1[nH]nc2c1C(c1ccsc1)C(C#N)=C(N)O2` (stereo unspecified) as the compound, how does the Potency read?
Answer: inconclusive: 29.1 µM [inhibitor, single point]

Question: For `COc1ccc(CCNS(=O)(=O)c2ccc3c(c2)CCCC3)cc1OC`, which Potency is on record?
Answer: inconclusive: 29.1 µM [inhibitor, single point]

Question: With `CC(C)C(=O)Nc1cccc(COc2ccc(CN(Cc3ccccc3)C(=O)OC(C)(C)C)cc2)c1` as the compound, how does the Potency read?
Answer: inconclusive: 25.9 µM [inhibitor, single point]

Question: For `CCOc1ccc(-c2ccc3nnc(SCC(=O)NCC4CCCO4)n3n2)cc1` (stereo unspecified), which “activity change, negative = growth inhibition” value is on record?
Answer: inactive: -10.8%

Question: Which “activity change, negative = growth inhibition” value does the source give for `O=C(CCN1C(=O)C2C3CCC(C3)C2C1=O)Nc1ccccc1Cl` (stereo unspecified) here?
Answer: inactive: -23.5%

Question: For `CCc1ccccc1OCC(=O)Nc1cccc(S(=O)(=O)NC2=NCCC2)c1`, which Potency is on record?
Answer: inconclusive: 20.6 µM [inhibitor, single point]

Question: Which “activity change, negative = growth inhibition” value does the source give for `CCOC(=O)C1CCC(CN(Cc2ccc(OC)cc2)S(=O)(=O)c2ccc(F)c(C(=O)Nc3cc(C)ccc3C)c2)CC1` (stereo unspecified) here?
Answer: inactive: -12.5%

Question: For `CCCc1cc2c(=O)c(-c3ccccn3)coc2cc1OC`, which Potency is on record?
Answer: inconclusive: 18.4 µM [inhibitor, partial curve]

Question: With `O=C(Cc1ccc(Cl)cc1)Nc1ccc2oc(-c3ccncc3)nc2c1` as the compound, how does the Potency read?
Answer: inconclusive: 4.61 µM [inhibitor, full curve]

Question: Which “activity change, negative = growth inhibition” value does the source give for `Cc1n[nH]c(=O)nc1Nc1ccc(O)cc1` here?
Answer: inactive: 1.26%

Question: Which Potency does the source give for `Cc1ccccc1Oc1cc(-n2ncc(Cl)c(Cl)c2=O)ncn1` here?
Answer: active: 0.651 µM

Question: With `Cn1c(=O)n(C)c2cc([N+](=O)[O-])c(N3CCN(C(=O)c4ccc(Cl)cc4)CC3)cc21` as the compound, how does the Potency read?
Answer: inconclusive: 25.9 µM [inhibitor, partial curve, poor fit]
